Laboratory results reported in the supplement of paper PMC8728848.
The list shows a part of the results.

How the values were obtained:
Experiment in all cases: glycan array binding signal (z-score within array); higher = stronger binding
Settings in all cases: glycan notation: IUPAC condensed, linker removed
GlcNAc(b1-3)Gal(b1-4)Glc = biological target: GlcNAc(b1-3)Gal(b1-4)Glc
How it was run: (§1)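 The binding signal is a Z-score computed within each array and averaged over linkers. Arrays of the same protein sequence at different concentrations or buffers were also averaged together. Data originate from 3228 arrays in the Consortium for Functional Glycomics database, kept only where the protein sequence was available.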

[1] = biological target: GlcNAc(b1-3)Gal(b1-4)GlcNAc
How it was run: as §1

[2] = biological target: GlcNAc(b1-3)Gal(b1-4)GlcNAc(b1-2)Man(a1-3)[GlcNAc(b1-3)Gal(b1-4)GlcNAc(b1-2)Man(a1-6)]Man(b1-4)GlcNAc(b1-4)GlcNAc
How it was run: as §1

[3] = biological target: GlcNAc(b1-3)Gal(b1-4)GlcNAc(b1-2)Man(a1-3)[GlcNAc(b1-3)Gal(b1-4)GlcNAc(b1-2)Man(a1-6)]Man(b1-4)GlcNAc(b1-4)[Fuc(a1-6)]GlcNAc
How it was run: as §1

[4] = biological target: GlcNAc(b1-3)Gal(b1-4)GlcNAc(b1-2)[GlcNAc(b1-3)Gal(b1-4)GlcNAc(b1-6)]Man(a1-6)[GlcNAc(b1-3)Gal(b1-4)GlcNAc(b1-2)Man(a1-3)]Man(b1-4)GlcNAc(b1-4)GlcNAc
How it was run: as §1

[5] = biological target: GlcNAc(b1-3)Gal(b1-4)GlcNAc(b1-3)Gal(b1-4)GlcNAc
How it was run: as §1

[6] = biological target: GlcNAc(b1-3)Gal(b1-4)GlcNAc(b1-3)Gal(b1-4)GlcNAc(b1-2)Man(a1-3)[GlcNAc(b1-3)Gal(b1-4)GlcNAc(b1-3)Gal(b1-4)GlcNAc(b1-2)Man(a1-6)]Man(b1-4)GlcNAc(b1-4)GlcNAc
How it was run: as §1

[7] = biological target: GlcNAc(b1-3)Gal(b1-4)GlcNAc(b1-3)Gal(b1-4)GlcNAc(b1-2)Man(a1-3)[GlcNAc(b1-3)Gal(b1-4)GlcNAc(b1-3)Gal(b1-4)GlcNAc(b1-2)Man(a1-6)]Man(b1-4)GlcNAc(b1-4)[Fuc(a1-6)]GlcNAc
How it was run: as §1

[8] = biological target: GlcNAc(b1-3)Gal(b1-4)GlcNAc(b1-3)Gal(b1-4)GlcNAc(b1-2)[GlcNAc(b1-3)Gal(b1-4)GlcNAc(b1-3)Gal(b1-4)GlcNAc(b1-6)]Man(a1-6)[GlcNAc(b1-3)Gal(b1-4)GlcNAc(b1-3)Gal(b1-4)GlcNAc(b1-2)Man(a1-3)]Man(b1-4)GlcNAc(b1-4)[Fuc(a1-6)]GlcNAc
How it was run: as §1

[9] = biological target: GlcNAc(b1-3)Gal(b1-4)GlcNAc(b1-3)Gal(b1-4)GlcNAc(b1-3)Gal(b1-4)GlcNAc(b1-2)Man(a1-3)[GlcNAc(b1-3)Gal(b1-4)GlcNAc(b1-3)Gal(b1-4)GlcNAc(b1-3)Gal(b1-4)GlcNAc(b1-2)Man(a1-6)]Man(b1-4)GlcNAc(b1-4)GlcNAc
How it was run: as §1

[10] = biological target: GlcNAc(b1-3)Gal(b1-4)GlcNAc(b1-3)Gal(b1-4)GlcNAc(b1-3)Gal(b1-4)GlcNAc(b1-2)Man(a1-3)[GlcNAc(b1-3)Gal(b1-4)GlcNAc(b1-3)Gal(b1-4)GlcNAc(b1-3)Gal(b1-4)GlcNAc(b1-2)Man(a1-6)]Man(b1-4)GlcNAc(b1-4)[Fuc(a1-6)]GlcNAc
How it was run: as §1

[11] = biological target: GlcNAc(b1-3)Gal(b1-4)GlcNAc(b1-3)Gal(b1-4)GlcNAc(b1-3)Gal(b1-4)GlcNAc(b1-2)[GlcNAc(b1-3)Gal(b1-4)GlcNAc(b1-3)Gal(b1-4)GlcNAc(b1-3)Gal(b1-4)GlcNAc(b1-6)]Man(a1-6)[GlcNAc(b1-3)Gal(b1-4)GlcNAc(b1-3)Gal(b1-4)GlcNAc(b1-3)Gal(b1-4)GlcNAc(b1-2)Man(a1-3)]Man(b1-4)GlcNAc(b1-4)[Fuc(a1-6)]GlcNAc
How it was run: as §1

[12] = biological target: GlcNAc(b1-3)Gal(b1-4)GlcNAc(b1-3)Gal(b1-4)GlcNAc(b1-3)Gal(b1-4)GlcNAc(b1-3)Gal(b1-4)GlcNAc(b1-2)Man(a1-3)[GlcNAc(b1-3)Gal(b1-4)GlcNAc(b1-3)Gal(b1-4)GlcNAc(b1-3)Gal(b1-4)GlcNAc(b1-3)Gal(b1-4)GlcNAc(b1-2)Man(a1-6)]Man(b1-4)GlcNAc(b1-4)GlcNAc
How it was run: as §1

[13] = biological target: GlcNAc(b1-3)Gal(b1-4)GlcNAc(b1-3)Gal(b1-4)GlcNAc(b1-3)Gal(b1-4)GlcNAc(b1-3)Gal(b1-4)GlcNAc(b1-2)Man(a1-3)[GlcNAc(b1-3)Gal(b1-4)GlcNAc(b1-3)Gal(b1-4)GlcNAc(b1-3)Gal(b1-4)GlcNAc(b1-3)Gal(b1-4)GlcNAc(b1-2)Man(a1-6)]Man(b1-4)GlcNAc(b1-4)[Fuc(a1-6)]GlcNAc
How it was run: as §1

[14] = biological target: GlcNAc(b1-3)Gal(b1-4)GlcNAc(b1-3)Gal(b1-4)GlcNAc(b1-3)Gal(b1-4)GlcNAc(b1-3)Gal(b1-4)GlcNAc(b1-2)[GlcNAc(b1-3)Gal(b1-4)GlcNAc(b1-3)Gal(b1-4)GlcNAc(b1-3)Gal(b1-4)GlcNAc(b1-3)Gal(b1-4)GlcNAc(b1-6)]Man(a1-6)[GlcNAc(b1-3)Gal(b1-4)GlcNAc(b1-3)Gal(b1-4)GlcNAc(b1-3)Gal(b1-4)GlcNAc(b1-3)Gal(b1-4)GlcNAc(b1-2)Man(a1-3)]Man(b1-4)GlcNAc(b1-4)[Fuc(a1-6)]GlcNAc
How it was run: as §1

[15] = biological target: GlcNAc(b1-3)Gal(b1-4)GlcNAc(b1-3)Gal(b1-4)GlcNAc(b1-3)GalNAc
How it was run: as §1

[16] = biological target: GlcNAc(b1-3)Gal(b1-4)GlcNAc(b1-3)GalNAc
How it was run: as §1

[17] = biological target: GlcNAc(b1-3)Gal(b1-4)GlcNAc(b1-3)[GlcNAc(b1-3)Gal(b1-4)GlcNAc(b1-3)]GalNAc
How it was run: as §1

[18] = biological target: GlcNAc(b1-3)Gal(b1-4)GlcNAc(b1-6)[Gal(b1-3)]GalNAc
How it was run: as §1

[19] = biological target: GlcNAc(b1-3)Gal(b1-4)GlcNAc(b1-6)[GlcNAc(b1-3)Gal(b1-3)]GalNAc
How it was run: as §1

[20] = biological target: GlcNAc(b1-3)Gal(b1-4)GlcNAc(b1-6)[GlcNAc(b1-3)]Gal(b1-4)GlcNAc
How it was run: as §1

GlcNAc(b1-3)GalNAc = biological target: GlcNAc(b1-3)GalNAc
How it was run: as §1

B1: MPA (Maclura pomifera), P18674 (protein)
chain: GVTFDDGAYTGIREINFEYNSETAIGGLRVTYDLNGMPFVAEDHKSFITGFKPVKISLEFPSEYIVEVSGYVGKVEGYTVIRSLTFKTNKQTYGPYGVTNGTPFSLPIENGLIVGFKGSIGYWLDYFSIYLSL
glycan array binding signal (z-score) (GlcNAc(b1-3)Gal(b1-4)Glc): -0.192
glycan array binding signal (z-score) [1]: -0.233
glycan array binding signal (z-score) [2]: -0.201
glycan array binding signal (z-score) [3]: 1.06
glycan array binding signal (z-score) [4]: 5.1
glycan array binding signal (z-score) [5]: -0.233
glycan array binding signal (z-score) [6]: 3.5
glycan array binding signal (z-score) [7]: 2.23
glycan array binding signal (z-score) [8]: 2.05
glycan array binding signal (z-score) [9]: 0.656
glycan array binding signal (z-score) [10]: 5.73
glycan array binding signal (z-score) [11]: 4.46
glycan array binding signal (z-score) [12]: 0.09
glycan array binding signal (z-score) [13]: -0.071
glycan array binding signal (z-score) [14]: 0.56
glycan array binding signal (z-score) [15]: -0.343
glycan array binding signal (z-score) [16]: -0.266
glycan array binding signal (z-score) [17]: 0.326
glycan array binding signal (z-score) [18]: -0.223
glycan array binding signal (z-score) [19]: -0.194
glycan array binding signal (z-score) [20]: -0.119
glycan array binding signal (z-score) (GlcNAc(b1-3)GalNAc): -0.162
